Data on 28 compounds can be found in the supplement of paper PMC10037445.

Assay [1] concerns RAW-Dual. The experiment in a line: NF-kB SEAP reporter activity, fold change vs agonist alone; higher = enhanced NF-kB activity. The essentials:
(§1)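 Reporter activity is given as fold change relative to agonist-alone wells. To measure it, 50 nL of library stock was pin-tooled onto RAW-Dual macrophages (50,000 cells/well, DMEM, 384-well plates), a PRR agonist followed 1 h later, and cells stayed at 37 °C, 5% CO2. Twenty hours on, supernatant was assayed for IRF (QuantiLuc luminescence) and NF-κB (QuantiBlue, 620 nm absorbance), and wells under 70% of agonist-control IncuCyte confluency in both mask sets were marked cytotoxic.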

Assay [2] deals with RAW-Dual. The experiment in a line: NF-kB SEAP reporter activity, fold change vs agonist alone; cytotoxicity flag (confluency mask): not cytotoxic; higher = enhanced NF-kB activity. The essentials:
as §1

The subject of assay [3] is RAW-Dual. The experiment in a line: NF-kB SEAP reporter activity, fold change vs agonist alone; cytotoxicity flag (confluency mask): cytotoxic (confluency <70% of control); higher = enhanced NF-kB activity. The essentials: as §1
Where [4] appears, read: library stock concentration (final ~1000-fold dilution): 10 mM, cytotoxicity flag (confluency mask): not cytotoxic, agonist: Imiquimod (TLR7) […].
[5] abbreviates: library stock concentration (final ~1000-fold dilution): 10 mM, cytotoxicity flag (confluency mask): not cytotoxic, agonist: MPLA (TLR4) […].
[6] abbreviates: agonist: ODN 1826 (TLR9) 0.5 ug/mL.
Where [7] appears, read: agonist: Pam2CSK4 (TLR2/6) 0.1 ug/mL.
The mark [8] stands for this setting: agonist: Pam3CSK4 (TLR2/1) 0.1 ug/mL.

The full ranking holds about 2,900 compounds; the median of “NF-kB SEAP reporter activity, fold change vs agonist alone” is about 0.99, and the highest 2% start at about 2.6. The list shows a part of the results.

For the compound `NC(=O)OCC(COC(N)=O)c1ccccc1`, the “NF-kB SEAP reporter activity” value in the assay on RAW-Dual [1] (setting [4]) turned out to be 0.916; in the assay on RAW-Dual [1] (setting [5]) it was 0.976.
Regarding `Cl.Cl.O=C(O)COCCN1CCN(C(c2ccccc2)c2ccc(Cl)cc2)CC1` (centres undefined) (library stock concentration (final ~1000-fold dilution): 10 mM), the “NF-kB SEAP reporter activity” value was determined as 1.28 with RAW-Dual [2] (agonist: LPS (TLR4) 0.1 ug/mL), 0.984 in the assay on RAW-Dual [2] (setting [6]), 1.04 in the assay with RAW-Dual [2] (setting [7]) and 0.961 in the assay on RAW-Dual [2] (setting [8]).
As for `Cl.Cl.O=C(O)COCCN1CCN(C(c2ccccc2)c2ccc(Cl)cc2)CC1` (centres undefined), the “NF-kB SEAP reporter activity” value in the assay with RAW-Dual [1] (setting [4]) was found to be 0.936; with RAW-Dual [1] (setting [5]) it was 0.938.
Turning to `OC(CC1c2ccccc2-c2cncn21)C1CCCCC1` (centres undefined), the “NF-kB SEAP reporter activity” value in the assay with RAW-Dual [1] (setting [4]) amounted to 0.631; in the assay on RAW-Dual [1] (setting [5]) it was 0.794.
With `OC(CC1c2ccccc2-c2cncn21)C1CCCCC1` (centres undefined) (library stock concentration (final ~1000-fold dilution): 10 mM), the “NF-kB SEAP reporter activity” value amounted to 0.874 in the assay with RAW-Dual [2] (agonist: LPS (TLR4) 0.1 ug/mL), 0.541 in the assay with RAW-Dual [2] (setting [6]), 0.791 in the assay on RAW-Dual [2] (setting [7]) and 0.512 with RAW-Dual [2] (setting [8]).
As for `[O-][n+]1cccc(CO)c1` (library stock concentration (final ~1000-fold dilution): 10 mM), the “NF-kB SEAP reporter activity” value was 0.952 in the assay with RAW-Dual [2] (agonist: LPS (TLR4) 0.1 ug/mL), 1.03 with RAW-Dual [2] (setting [6]), 1.09 in the assay with RAW-Dual [2] (setting [7]) and 1.08 in the assay on RAW-Dual [2] (setting [8]).
As to `[O-][n+]1cccc(CO)c1`, the “NF-kB SEAP reporter activity” value was determined as 0.952 in the assay with RAW-Dual [1] (setting [4]) and 1.04 with RAW-Dual [1] (setting [5]).
As for `CCC(=C(c1ccccc1)c1ccc(OCCN(C)C)cc1)c1ccccc1` (library stock concentration (final ~1000-fold dilution): 10 mM), the “NF-kB SEAP reporter activity” value came to 0.687 in the assay with RAW-Dual [3] (agonist: LPS (TLR4) 0.1 ug/mL), 0.447 in the assay on RAW-Dual [3] (setting [6]), 0.398 with RAW-Dual [3] (setting [7]) and 0.525 with RAW-Dual [3] (setting [8]).
Turning to `CCC(=C(c1ccccc1)c1ccc(OCCN(C)C)cc1)c1ccccc1`, the “NF-kB SEAP reporter activity” value with RAW-Dual [1] (library stock concentration (final ~1000-fold dilution): 10 mM, cytotoxicity flag (confluency mask): cytotoxic (confluency <70% of control), agonist: Imiquimod (TLR7) […]) was determined as 1.53; with RAW-Dual [1] (library stock concentration (final ~1000-fold dilution): 10 mM, cytotoxicity flag (confluency mask): cytotoxic (confluency <70% of control), agonist: MPLA (TLR4) […]) it was 1.52.
As for `O=C1CCN(c2ccccc2)N1`, the “NF-kB SEAP reporter activity” value is 0.984 with RAW-Dual [1] (setting [4]) and 1.13 with RAW-Dual [1] (setting [5]).
On to `O=C1CCN(c2ccccc2)N1` (library stock concentration (final ~1000-fold dilution): 10 mM), for which the “NF-kB SEAP reporter activity” value in the assay with RAW-Dual [2] (agonist: LPS (TLR4) 0.1 ug/mL) amounted to 1.15; in the assay on RAW-Dual [2] (setting [6]), 0.945; with RAW-Dual [2] (setting [7]), 0.862; in the assay with RAW-Dual [2] (setting [8]), 0.822.
On to `COC(=O)Nc1ccc(-c2nc(N3CCOCC3)c3cnn(C4CCN(C(=O)OC)CC4)c3n2)cc1` (library stock concentration (final ~1000-fold dilution): 10 mM), for which the “NF-kB SEAP reporter activity” value with RAW-Dual [2] (agonist: LPS (TLR4) 0.1 ug/mL) was determined as 0.888; in the assay on RAW-Dual [2] (setting [6]) it was 0.912; in the assay on RAW-Dual [2] (setting [7]), 0.867; with RAW-Dual [2] (setting [8]), 0.873.
With `COC(=O)Nc1ccc(-c2nc(N3CCOCC3)c3cnn(C4CCN(C(=O)OC)CC4)c3n2)cc1`, the “NF-kB SEAP reporter activity” value in the assay on RAW-Dual [1] (setting [4]) was 0.976; in the assay with RAW-Dual [1] (setting [5]) it was 0.895.
On to `CS(=O)(=O)CCNCc1ccc(-c2ccc3ncnc(Nc4ccc(OCc5cccc(F)c5)c(Cl)c4)c3c2)o1.Cc1ccc(S(=O)(=O)O)cc1.Cc1ccc(S(=O)(=O)O)cc1`, for which the “NF-kB SEAP reporter activity” value with RAW-Dual [1] (setting [4]) came out at 1.68; in the assay on RAW-Dual [1] (setting [5]) it was 1.56.
For `CS(=O)(=O)CCNCc1ccc(-c2ccc3ncnc(Nc4ccc(OCc5cccc(F)c5)c(Cl)c4)c3c2)o1.Cc1ccc(S(=O)(=O)O)cc1.Cc1ccc(S(=O)(=O)O)cc1` (library stock concentration (final ~1000-fold dilution): 10 mM), the “NF-kB SEAP reporter activity” value is 4.16 in the assay with RAW-Dual [2] (agonist: LPS (TLR4) 0.1 ug/mL), 0.272 in the assay on RAW-Dual [2] (setting [6]), 0.851 in the assay with RAW-Dual [2] (setting [7]) and 1.14 with RAW-Dual [2] (setting [8]).
The corresponding values for `Nc1ccc(S(=O)(=O)Nc2cnc3ccccc3n2)cc1` (library stock concentration (final ~1000-fold dilution): 10 mM water) are 1.29, 1.14, 1.22 and 1.07.
Regarding `Nc1ccc(S(=O)(=O)Nc2cnc3ccccc3n2)cc1`, in the assay on RAW-Dual [1] (library stock concentration (final ~1000-fold dilution): 10 mM water, cytotoxicity flag (confluency mask): not cytotoxic, agonist: MPLA (TLR4) […]), the “NF-kB SEAP reporter activity” value amounted to 1.02.
Regarding `O=C1C(CCS(=O)c2ccccc2)C(=O)N(c2ccccc2)N1c1ccccc1` (centres undefined), in the assay on RAW-Dual [1] (setting [5]), the “NF-kB SEAP reporter activity” value was 0.927.
Turning to `O=C1C(CCS(=O)c2ccccc2)C(=O)N(c2ccccc2)N1c1ccccc1` (centres undefined) (library stock concentration (final ~1000-fold dilution): 10 mM), the “NF-kB SEAP reporter activity” value in the assay with RAW-Dual [2] (agonist: LPS (TLR4) 0.1 ug/mL) came to 1.16; with RAW-Dual [2] (setting [6]), 0.919; in the assay on RAW-Dual [2] (setting [7]) it was 1.25; in the assay with RAW-Dual [2] (setting [8]), 0.905.
Take `Cc1cc(N=Nc2ccc(S(=O)(=O)Nc3ccccn3)cc2)c(N)cc1O` (library stock concentration (final ~1000-fold dilution): 10 mM): the “NF-kB SEAP reporter activity” value in the assay on RAW-Dual [2] (agonist: LPS (TLR4) 0.1 ug/mL) amounted to 3.77.
Turning to `CC1(C)CC1C(=O)N/C(=C\CCCCSCC(N)C(=O)O)C(=O)O` (centres undefined), the “NF-kB SEAP reporter activity” value with RAW-Dual [1] (setting [4]) is 0.969; with RAW-Dual [1] (setting [5]) it was 1.
Consider `CC1(C)CC1C(=O)N/C(=C\CCCCSCC(N)C(=O)O)C(=O)O` (centres undefined) (library stock concentration (final ~1000-fold dilution): 10 mM), for which the “NF-kB SEAP reporter activity” value with RAW-Dual [2] (agonist: LPS (TLR4) 0.1 ug/mL) was determined as 0.995; in the assay on RAW-Dual [2] (setting [6]) it was 0.976; with RAW-Dual [2] (setting [7]), 1.06; in the assay with RAW-Dual [2] (setting [8]), 1.1.
Regarding `CCOC(=O)C(CCc1ccccc1)NC(C)C(=O)N1Cc2ccccc2CC1C(=O)O.Cl` (centres undefined) (library stock concentration (final ~1000-fold dilution): 10 mM), the “NF-kB SEAP reporter activity” value with RAW-Dual [2] (agonist: LPS (TLR4) 0.1 ug/mL) was 0.94; in the assay on RAW-Dual [2] (setting [6]) it was 1.07; in the assay on RAW-Dual [2] (setting [7]), 1.26; with RAW-Dual [2] (setting [8]) it was 1.05.
As for `CCOC(=O)C(CCc1ccccc1)NC(C)C(=O)N1Cc2ccccc2CC1C(=O)O.Cl` (centres undefined), the “NF-kB SEAP reporter activity” value in the assay on RAW-Dual [1] (setting [4]) was found to be 1.02; with RAW-Dual [1] (setting [5]), 1.03.
`Cl.NC12CC3CC(CC(C3)C1)C2` (library stock concentration (final ~1000-fold dilution): 10 mM): the “NF-kB SEAP reporter activity” value in the assay on RAW-Dual [2] (agonist: LPS (TLR4) 0.1 ug/mL) came out at 1.03; with RAW-Dual [2] (setting [6]), 0.798; in the assay on RAW-Dual [2] (setting [7]), 0.873; with RAW-Dual [2] (setting [8]) it was 1.02.
Take `Cl.NC12CC3CC(CC(C3)C1)C2`: the “NF-kB SEAP reporter activity” value in the assay on RAW-Dual [1] (setting [4]) is 0.884; in the assay with RAW-Dual [1] (setting [5]), 1.08.
`Cc1cnc(Nc2ccc(F)cc2Cl)nc1-c1c[nH]c(C(=O)NC(CO)c2cccc(Cl)c2)c1` (centres undefined): the entries for the “NF-kB SEAP reporter activity” value in the assay with RAW-Dual [1] (setting [4]) and with RAW-Dual [1] (setting [5]) were 0.304 and 0.428, respectively.
In the case of `Cc1cnc(Nc2ccc(F)cc2Cl)nc1-c1c[nH]c(C(=O)NC(CO)c2cccc(Cl)c2)c1` (centres undefined) (library stock concentration (final ~1000-fold dilution): 10 mM), the “NF-kB SEAP reporter activity” value amounted to 0.359 with RAW-Dual [2] (agonist: LPS (TLR4) 0.1 ug/mL), 0.482 with RAW-Dual [2] (setting [6]), 0.0809 in the assay on RAW-Dual [2] (setting [7]) and 0.13 in the assay with RAW-Dual [2] (setting [8]).
